Experimental data published in PubChem BioAssay (NCI).
Several values for one entry are separate records, joined by “and”; a condition that tells them apart may be missing. Identical values can stand only once.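 Following 48 hours of exposure in 96-well plates, responses at five concentrations were used to interpolate endpoints linearly. Here, GI50 denotes the concentration required for 50% inhibition of growth. At the TGI there is no net growth.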

Test system: NCI-H322M lung
Assay: growth of human tumour cells (NCI), 48 h

| SMILES | TGI [µM] | GI50 |
| --- | --- | --- |
| Cc1coc2c1CC1(C)C(CCC(O)C1C)C2 (stereo unspecified) | > 100 |  |
| Oc1cc2c3c(c1)c1cc4c(cc1c[n+]3CC2)OCO4 | > 54.3 |  |
| O=C(O)CN(CC(=O)O)C1CCCCC1N(CC(=O)O)CC(=O)NCCN=C=S (stereo unspecified) | > 100 |  |
| COC1CCC(N2C(=O)CNc3ncc(-c4ccc(C(C)(C)O)nc4)nc32)CC1 (stereo unspecified) | > 37.6 | 0.536 µM and 0.289 µM |
| CCC12C=CCN3CCC4(C(=C(C(=O)OC)[C@@H]1O)Nc1ccccc14)C32 (stereo partly specified) | 6.88 |  |
| Cc1ccsc1/C=N/Nc1ncccn1 | > 100 |  |
| C[C@]12CC[C@H](O)CC1=CC[C@@H]1C2CC[C@]2(C)C(=O)N(N)C(=O)CC12 (stereo partly specified) | > 100 |  |
| CCN(CCO)CC1CCCC2CCCCC21 (stereo unspecified) | > 100 |  |
| CC(C)=CC(=O)C1c2cccc(O)c2C(=O)c2c(O)cc(C)cc21 (stereo unspecified) | 6.94 |  |
| C#Cc1ccc(-n2c(/C=C/c3ccc(C(F)(F)F)cc3)nc3ncccc3c2=O)cc1 | 7.01 | 2.25 µM |
| CC(C)CC(=O)OC[n+]1ccc(-c2c(COC(=O)NC(C)C)c(COC(=O)NC(C)C)c3n2CCC3)cc1 | > 100 |  |
| C=C1c2nc3ccccc3n2C=C(c2ccccc2)N1c1ccc([N+](=O)[O-])cc1 | > 86.9 |  |
| CC12CCC(O)CC1CCC1C2CCC2(C)C(C3=CC(=O)OC3)CCC12O (stereo unspecified) | 15.6 |  |
| COc1cc(/C=C/C(=N\NS(=O)(=O)c2ccc(C)cc2)c2sc(NNC(C)=O)nc2C)ccc1O | > 100 |  |
| Brc1ccc(N=c2nc3ccccn3n3nc(-c4ccccc4)cc23)cc1 | > 100 |  |
| COc1ccc2c(C3=C(c4cn(C)c5ccccc45)C(=O)NC3=O)cn(C)c2c1 | > 25 | 0.328 µM |
| O=S1(=O)c2ccccc2NC(c2ccc3ccccc3c2)CC1c1ccccc1F (stereo unspecified) | > 100 |  |
| OCc1ccc(N2CCC2c2ccc(F)cc2)cc1Cl (stereo unspecified) | > 70.8 | 21.3 µM |
| CC1=CC2C(O1)C1C(=O)C=CC(=O)C1=CC2[N+](=O)[O-] (stereo unspecified) | > 87.9 |  |
| C=C(C1=CC(=O)C(C)(C)O1)[C@@H]1CC=C([C@@H]2CC[C@H]3[C@@]2(C)CC[C@H]2C(C)(C)C(=O)[C@H](O)C[C@]32C)[C@H](O)O1 | 24.1 |  |
| CCOC(=O)[C@]1(OC(C)=O)C[C@H](OC(C)=O)[C@@H](C(F)COP(=O)(OCc2ccccc2)OCc2ccccc2)O1 (stereo partly specified) | > 100 |  |
| COc1cc(/C=C2\S/C(=N/Nc3nc(-c4ccc(Br)cc4)cs3)NC2=O)cc(OC)c1OC | 82.8 |  |
| O=C(COc1ccc(Br)cc1Br)N1N=C(c2ccc([N+](=O)[O-])o2)CC1(O)c1ccccc1 (stereo unspecified) | 43.3 |  |
| CN1CCN([C@H]2C[C@H]3[C@@H]4CC=C5C[C@@H](O)CC[C@]5(C)[C@H]4CC[C@]3(C)C2=O)CC1 | > 100 |  |
| C[C@@]12C[C@@H](c3ccccc3O1)N1CCCCSC1=N2 | > 100 |  |

| SMILES | TGI [µM] | GI50 |
| --- | --- | --- |
| C[n+]1c2ccccc2c(/C=N\NS(=O)(=O)c2ccc(O)c(C(=O)O)c2)c2ccccc21 | > 100 |  |
| O=C1CC(c2ccc3c(c2)OCO3)Nc2ccccc21 (stereo unspecified) | 26.1 | 11.4 µM |
| CC1=C(C(=O)NCc2ccccc2)C(/C=C/c2ccccc2)C(C(=O)NCc2ccccc2)=C(C)N1 | > 100 |  |
| O=C1/C(=C/c2cccc([N+](=O)[O-])c2)COc2ccc(O)cc21 | 21.9 | 10.3 µM |
| CCOC(=O)C1=C(C)NC(=S)NC1c1ccccc1 (stereo unspecified) | > 100 |  |
| Cn1cnc([N+](=O)[O-])c1Sc1nnc(-c2cccnc2)n1C | > 100 |  |
| c1ccc(N=C2SC3=Nc4cccc5cccc(c45)N3C2=Nc2ccccc2)cc1 | > 100 |  |
| O=S1(=O)NC(=NCc2c[nH]c3ccccc23)N(c2ccccc2)c2ccncc21 | > 100 |  |
| O=C(Nc1ccccc1)NS(=O)(=O)c1ccc(-n2nc3c(c2-c2cccs2)Cc2ccccc2-3)cc1 | 47 | 4.5 µM |
| CCOC(=O)CN1C(=O)c2cccc3cc([N+](=O)[O-])cc(c23)C1=O | 25.1 |  |
| COc1cc(Cc2cnc(/N=C3\C(=O)N(CN4CCN(c5c(F)cc6c(=O)c(C(=O)O)cn(C7CC7)c6c5OC)CC4C)c4ccc(F)cc43)nc2N)cc(OC)c1OC (stereo unspecified) | 26.7 | 11.7 µM |
| Cc1ccc(C(=O)/C(=C/c2ccc([N+](=O)[O-])cc2)SCc2ccc(Cl)cc2)cc1 | > 100 | > 100 µM |
| CCC(CO)Nc1nc2ccc(Cl)cc2c2ccccc12 (stereo unspecified) | 18.3 | 3.88 µM |
| COc1ccc2c3c1C(=O)CCCC3CO2 (stereo unspecified) | > 100 |  |
| O=c1[nH]cc(N=Cc2cc(Cl)cc(Cl)c2O)c(=O)[nH]1 | 64.4 |  |
| CC1=C(C)[C@@]2(C)O[C@@]2(C)O[C@@]2(C)O[C@@]12C | > 100 |  |
| N#CC1C(C#N)C2(c3ccccc3)C(c3ccccc3)=NN(c3ccccc3)CC12 (stereo unspecified) | > 100 |  |
| Cc1cccc(/C=N/NC(=S)Nc2ccccc2)n1 | > 91.8 |  |
| COc1ccc(C(=O)Cn2c(C(=O)c3ccccc3)nc(-c3ccc(OC)cc3)c2-c2ccc(OC)cc2)cc1 | > 100 | > 100 µM |
| O=C1C(=O)N(c2ccc(Cl)cc2Cl)C(=O)C(=O)C1c1nc2ccccc2s1 | > 100 |  |
| Cc1cn(C2CC(n3cc(Cn4cc(I)c(=O)[nH]c4=O)nn3)C(CO)O2)c(=O)[nH]c1=O (stereo unspecified) | > 100 |  |
| O=C(Nc1ccccc1OC(F)(F)F)Nc1n[nH]c2ccccc12 | > 100 | 81.6 µM |
| CC(C)C1/C(=N/O)CC(c2ccccc2)N(N=O)C1c1ccccc1 (stereo unspecified) | > 100 |  |
| CCNC(=S)N/N=C/c1cc([N+](=O)[O-])ccc1O | > 100 |  |
| COc1nc(N)c(C(=O)CCl)c(=O)n1C | 34.9 |  |

| SMILES | TGI [µM] | GI50 |
| --- | --- | --- |
| COC(=O)[C@@H]1[C@H](O)[C@H](C)[C@H](O)[C@@](C)(O)/C=C\C=C(C)C(=O)Nc2c(C)c(OC(C)=O)c3c(c2O)C(=O)C(C)=C2OCOC(=C23)C(C)=C[C@@](C)(O)[C@H](O)[C@@H](C)[C@H]1OC(C)=O | > 100 |  |
| Oc1ccc(-c2nc(-c3cccnc3)c(-c3ccc(F)cc3)[nH]2)cc1 | 58.4 |  |
| CC(C)CCC[C@@H](C)[C@H]1CC[C@H]2[C@@H]3CC=C4C[C@@H](C(C(=O)O)C(=O)O)CC[C@]4(C)[C@H]3CC[C@]12C | 24.7 | 0.871 µM |
| CC(=O)Nc1ccc(-c2nnc(SCC(=O)Nc3ccc([N+](=O)[O-])cc3)o2)cc1 | 54.9 |  |
| O=C1C(=Cc2ccc(O)cc2)N=C(c2ccccc2)N1n1c(-c2ccccc2)nc2ccccc2c1=O | > 100 |  |
| O=C(CC1(O)C(=O)Nc2c(Cl)cc(Cl)cc21)c1ccc(Br)cc1Br (stereo unspecified) | > 55.6 |  |
| CC[C@@]1(C[C@H]2C[C@@]3(C(=O)OC)c4[nH]c5ccccc5c4CCN3C2=O)COC2(CCCCC2)O1 | > 100 |  |
| COc1cc2c(cc1OC)-c1c3cc(O)ccc3nn[n+]1CC2 | > 100 |  |
| CSc1nc2c(c(=O)[nH]1)N=C1c3ccccc3C(=O)C1C(c1ccccc1)N2 (stereo unspecified) | > 100 | 13.5 µM |
| CC(N)Cc1ccc(C(=O)Cl)cc1 (stereo unspecified) | > 100 |  |
| O=C(/C=C/C12c3ccccc3C(c3ccccc31)C1C(=O)NC(=O)C12)c1ccncc1 (stereo unspecified) | 10.7 | 3.09 µM |
| CC(C)CCCCCCCCCCCCC(=O)NCC(=O)NC1C(C)OC(Nc2ncnc3c2ncn3C)C(O)C1O (stereo unspecified) | > 100 |  |
| COc1ccc(CNc2nc(NCc3ccc(OC)c(OC)c3)nc(NC3CCCCC3)n2)cc1 | > 100 |  |
| CC(C)c1ccc(/C=C2/C=C(c3ccc4ccccc4c3)OC2=O)cc1 | > 100 |  |
| NNC(=O)Nc1cccnc1 | > 100 |  |
| COc1ccc(C(=O)C(C(=O)CCC(=O)Nc2ccc(C)c(C)c2)c2ccc(OC)cc2)cc1 (stereo unspecified) | > 100 |  |
| COc1cc(CNc2cnc3cc(N)cc(N)c3n2)cc(OC)c1 | > 100 | 24.7 µM |
| COc1ccc2c(=O)c(O)c(-c3ccc(OC)c(OC)c3)oc2c1 | > 100 |  |
| CCOC(=O)Nn1c(C)nnc1-c1ccccc1 | > 100 |  |
| O=C(/C=C/c1ccccc1)NC1C=Nc2ccc(Cl)cc2NC1=O (stereo unspecified) | > 100 |  |
| O=C1C(Cl)=C(Nc2cccc(Cl)c2)C(=O)N1Cc1ccc(Cl)cc1Cl | 40.4 | 8.55 µM |
| CCc1ccc(CCN2CCCCC2)nc1 | > 100 |  |
| C(/c1ccco1)=c1/nc(-c2ccccc2)n2c1nc1ccccc12 | > 100 |  |
| CCOC(=O)C(NC(C)=O)(Nc1ccc(F)cc1)C(F)(F)F (stereo unspecified) | > 100 |  |
| Cn1c2ccccc2c2c(Nc3ccccc3)c3ccccc3nc21 | 45.6 | 15.3 µM |

| SMILES | TGI [µM] | GI50 |
| --- | --- | --- |
| C=C(CN1CCN(c2ccc(Cl)cc2F)CC1)c1ccc(C(=O)Nc2ccccc2N)cc1 | > 100 | > 19.6 µM |
| O=C(O)c1ccccc1[Se][Se]c1ccccc1C(=O)O | > 100 |  |
| CC(C)/C(Cl)=N\OC(=O)Nc1ccc(S(N)(=O)=O)cc1 | 28.9 |  |
| O=C(CCC(=O)c1ccc(Cl)cc1)NO | > 100 |  |
| N#CC(c1ccc(Cl)cc1)c1cccc(C(C#N)c2ccc(Cl)cc2)n1 (stereo unspecified) | > 100 |  |
| O=C(O)c1cccc2c1/C(=N/Nc1ccccc1)CC2 | > 100 |  |
| Cc1nc2ccccc2c(N)c1-c1cc(C)c2c(C)nc3ccccc3c2n1 | 3.13 | 1.44 µM |
| [N-]=[N+]=Nc1cc(=O)oc2ccccc12 | > 100 |  |
| Oc1cccc2c(Cl)ccnc12 | 81.3 |  |
| O=C1C=C(Cl)C(=O)C(c2ccc(Cl)cc2)=C1 | > 100 |  |
| Nc1cccc2cc(Cl)cnc12 | > 100 |  |
| N#CN=C(N(Cc1ccccc1)Cc1ccccc1)N(Cc1ccccc1)Cc1ccccc1 | > 100 |  |
| COc1cc([C@@H]2OCC3C(c4ccc5c(c4)OCO5)OCC32)cc(OC)c1OC (stereo partly specified) | > 100 |  |
| COc1ccc(C2c3cc4c(cc3OC(NNS(=O)(=O)c3ccc(C)cc3)C2C)OCO4)cc1 (stereo unspecified) | > 100 |  |
| O=C(O)CCc1coc2ccc(O)cc12 | > 100 |  |
| Clc1cc(OC2C3CC4CC(C3)CC2C4)nc(Cl)n1 (stereo unspecified) | 34.5 |  |
| c1ccc2cc(-c3cc(-c4cc(-c5ccc6ccccc6c5)on4)no3)ccc2c1 | > 100 |  |
| COC(=O)c1cc2c(n1S(=O)(=O)c1ccc(C)cc1)C(=O)C(=O)c1[nH]cc(C(=O)OCc3ccccc3)c1-2 | 0.323 |  |
| CCCCC(=O)OCC(=O)[C@]1(O)Cc2c(O)c3c(c(O)c2[C@@H](OC2CC(NC(=O)C(F)(F)F)C(O)C(C)O2)C1)C(=O)c1c(OC)cccc1C3=O (stereo partly specified) | 29.8 |  |
| Clc1ccc2c(NCCCCNc3nc(N4CCCCC4)nc4ccccc34)ccnc2c1 | 7.42 | 1.96 µM |
| O=CC[C@H]1C(=O)C[C@@H]2CCC[C@@H]21 | > 100 |  |
| O=[N+]([O-])/C(C(Cl)=C(Cl)Cl)=C(\SCc1ccccc1)N1CCCCC1 | > 100 |  |
| COC1=CC(c2ccc[nH]2)=N/C1=C\c1[nH]c(C)c(C(=O)OC(C)C)c1C | 6.86 | 0.549 µM |
| CCCN=C1CCN(Cc2ccccc2)c2ccccc2N1 | > 100 |  |
